Reference: article PMC4336329 (PLoS ONE, 2015)
Among all 310,000 compounds or so, about 2,200 (0.71%) showed an effect of 50% or more. Effects have a minus sign here. The list shows a part of the results.

Each compound was assayed against human ether-à-go-go-related gene (hERG) potassium channel (human, UniProt Q12809) (assay: primary screen, population patch clamp on CHO cells stably expressing hERG).
Chain of human ether-à-go-go-related gene (hERG) potassium channel (Q12809 whole entry, looked up): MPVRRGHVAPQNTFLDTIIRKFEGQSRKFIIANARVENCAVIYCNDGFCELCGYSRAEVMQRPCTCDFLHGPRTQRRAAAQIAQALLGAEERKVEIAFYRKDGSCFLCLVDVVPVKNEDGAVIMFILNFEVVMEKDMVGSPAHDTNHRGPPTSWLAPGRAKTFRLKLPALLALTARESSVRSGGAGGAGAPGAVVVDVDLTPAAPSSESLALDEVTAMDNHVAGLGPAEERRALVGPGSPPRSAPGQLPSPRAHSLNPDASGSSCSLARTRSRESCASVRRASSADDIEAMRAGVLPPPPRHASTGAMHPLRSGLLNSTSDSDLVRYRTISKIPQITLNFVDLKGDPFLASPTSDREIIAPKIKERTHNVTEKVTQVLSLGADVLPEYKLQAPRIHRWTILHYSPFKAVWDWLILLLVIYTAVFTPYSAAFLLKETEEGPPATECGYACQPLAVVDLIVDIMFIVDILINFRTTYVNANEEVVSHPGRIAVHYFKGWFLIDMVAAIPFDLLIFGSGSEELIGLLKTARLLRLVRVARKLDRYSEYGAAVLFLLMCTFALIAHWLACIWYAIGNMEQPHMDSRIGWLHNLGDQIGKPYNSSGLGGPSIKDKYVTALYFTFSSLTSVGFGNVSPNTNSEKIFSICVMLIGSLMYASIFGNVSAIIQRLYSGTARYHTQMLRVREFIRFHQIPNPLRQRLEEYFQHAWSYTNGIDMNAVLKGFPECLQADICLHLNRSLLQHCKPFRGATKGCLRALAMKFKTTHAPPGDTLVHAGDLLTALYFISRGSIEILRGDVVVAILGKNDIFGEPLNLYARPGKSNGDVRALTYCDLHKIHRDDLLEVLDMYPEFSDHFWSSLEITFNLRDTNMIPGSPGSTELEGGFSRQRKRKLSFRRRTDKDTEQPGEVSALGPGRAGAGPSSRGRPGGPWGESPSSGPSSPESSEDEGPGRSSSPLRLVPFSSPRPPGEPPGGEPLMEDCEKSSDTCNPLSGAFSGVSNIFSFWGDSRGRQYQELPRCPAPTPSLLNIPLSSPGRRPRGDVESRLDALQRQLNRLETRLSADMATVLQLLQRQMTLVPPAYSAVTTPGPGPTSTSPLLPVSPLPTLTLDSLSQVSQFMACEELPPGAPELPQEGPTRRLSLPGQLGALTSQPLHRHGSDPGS

| Compound | hERG current change (%, negative = inhibition) at 1uM [%] |
| --- | --- |
| Cc1cccc(Oc2cc(NC(=O)c3ccccc3)cc([N+](=O)[O-])c2)c1 | 16.7 |
| Cc1ccc(S(=O)(=O)N2CCOCC2)cc1C(=O)Nc1cccc(S(=O)(=O)N2CCCC2)c1 | 10.3 |
| C[C@@H]1[C@@H](Sc2ccccc2)CC(=O)O[C@@H]1c1ccc(-c2ccccc2)cc1 | 4.82 |
| Cc1ccc(S(=O)(=O)N(Cc2n[nH]c(=S)n2-c2ccccc2)c2ccccc2)cc1 | 14.1 |
| COc1ccc(NC(=O)NN(C(=O)c2ccccc2)C(C)(C)C)cc1 | 3.54 |
| COc1ccc(NS(=O)(=O)c2cccc(C(=O)NCCCN3CCCC3=O)c2)cc1 | 24 |
| O=S(=O)(c1ccccc1)N1CCN=C1SCc1ccccc1 | 9.96 |
| O=C(CCCCn1c(=O)c2ccccc2n(CC(=O)NC2CCCC2)c1=O)NCc1ccco1 | -3.02 |
| O=C(Nc1ccnn1C1CCN(Cc2cccc(OCCO)c2)CC1)C1CCCC1 | -2.81 |
| O=C(Nc1ccc(F)cc1F)c1ccc2nc(N3CCOCC3)sc2c1 | 12.2 |
| COc1cc(NC(=O)c2cccnc2)c(OC)cc1NC(=O)c1ccc(Br)cc1 | 20 |
| O=C(CN(c1ccccc1)S(=O)(=O)c1ccc(F)cc1)NC1CCS(=O)(=O)C1 (stereo not shown) | 9.8 |
| CCOCCCNC(=S)N1C2CCC1CC(NC(=O)Nc1ccc(C(=O)OCC)cc1)C2 (stereo not shown) | 11.6 |
| COc1ccc(-c2coc3cc(OC)cc(OC)c3c2=O)cc1 | 16.9 |
| CC(=O)N1CCN(c2ccc(NC(=O)c3cccc([N+](=O)[O-])c3)cc2)CC1 | 14.6 |
| CCC(CC)NC(=O)c1ccccc1Oc1ccccc1 | 1.49 |
| CCOC(=O)C1=C(C)OC(N)=C(C(=O)OCC)C1c1cccnc1 (stereo not shown) | 6.31 |
| O=C(Cc1cccc(C(F)(F)F)c1)Nc1ccccc1 | 5.63 |
| CCSc1nnc(NC(=O)c2ccc3c(c2)OCO3)s1 | -2.52 |
| CCc1ccccc1N1CSC2=C(C#N)C(c3cc(OC)c(OC)cc3OC)CC(=O)N2C1 (stereo not shown) | -4.38 |
| O=C(COc1ccc(Cl)cc1Cl)NN1C(=O)/C(=C\c2ccc(Cl)cc2)SC1=S | 8.23 |
| Cc1nnc(SCC(=O)N2CCc3ccccc32)s1 | 10.1 |

| Compound | hERG current change (%, negative = inhibition) at 1uM [%] |
| --- | --- |
| CC(=O)NCC(=O)NC1CC(C)(C)Cc2c1cnn2-c1ccccc1 (stereo not shown) | 13.1 |
| Fc1ccc(-c2nnc(-c3ccc(Cl)cc3)o2)cc1 | 10.8 |
| CCN(CC)S(=O)(=O)c1ccc(N2CC(C(=O)NCCc3ccc(Cl)cc3)CC2=O)cc1 (stereo not shown) | 4.52 |
| O=Cc1cccn1-c1cccnc1 | 0.633 |
| Cc1cc(C)cc(N(C(=O)c2snc(C(N)=O)c2N)C(C(=O)NCC2CCCO2)c2ccc(C)o2)c1 (stereo not shown) | 9.26 |
| Cc1cc(=O)oc2cc(OC(C)C(=O)NCC3CCCO3)ccc12 (stereo not shown) | 16.6 |
| CCCCOC(=O)C(C#N)c1nc2ccccc2nc1N1CCOCC1 (stereo not shown) | -5.34 |
| COc1nonc1NCn1nc(C)cc1C | 11.5 |
| Cc1nn(C)cc1C(=O)Nc1cc(Oc2ccc(Cl)cc2)cc([N+](=O)[O-])c1 | -7.06 |
| CNC(=O)c1[nH]cnc1C(=O)N[C@@H](CC(C)C)C(=O)OC(C)(C)C | 9.84 |
| N/C(=N\OC(=O)CCCOc1ccccc1)c1ccncc1 | 9.35 |
| CN(C(=O)C1CCN(S(=O)(=O)c2cccs2)CC1)C1CCCCC1 | 3.01 |
| O=C(c1cc2cc(Br)ccc2o1)N1CCOCC1 | 6.86 |
| CCn1c(=O)c2sccc2n2c(CCCC(=O)NCc3cccnc3)nnc12 | 7.95 |
| Cc1ccc2[nH]c3c(c2c1)CN(C(=O)CN1C[C@H]2C[C@@H](C1)c1cccc(=O)n1C2)CC3 | 3.06 |
| N#C/C(=N\Nc1ccccc1)C(N)=S | 5.33 |
| Cc1ccc(NC(C(N)=O)c2c(C)[nH]c(=O)[nH]c2=O)cc1 (stereo not shown) | 9.83 |
| CCC(=O)N1N=C(c2c(-c3ccccc3)c3cc(Cl)ccc3[nH]c2=O)CC1c1ccco1 (stereo not shown) | 0.55 |
| C/C(=N\NC(=O)C(c1ccccc1)c1ccccc1)c1ccccn1 | 2.64 |
| Cc1cccc(/C=N\Nc2nnc(-c3ccccc3)c(=O)[nH]2)c1 | -0.0933 |
| COC(=O)C1C2CCC(C2)C1C(=O)OCC(=O)c1ccc(C)cc1 (stereo not shown) | -8.81 |
